86 sequences from the supplement of paper PMC4166925 can be followed below.

± gives the standard deviation of the averaged measurements. Over roughly 33,000 sequences, “E-score (dimensionless, -0.5 to 0.5)” has its median near -0.046; the highest 2% begin near 0.36. The list shows a part of the results.
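Also: protein at 200 nM in PBS on universal double-stranded arrays.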

This assay relates to T1, SpTbr T-box DNA-binding domain (GST fusion).
T1 sequence: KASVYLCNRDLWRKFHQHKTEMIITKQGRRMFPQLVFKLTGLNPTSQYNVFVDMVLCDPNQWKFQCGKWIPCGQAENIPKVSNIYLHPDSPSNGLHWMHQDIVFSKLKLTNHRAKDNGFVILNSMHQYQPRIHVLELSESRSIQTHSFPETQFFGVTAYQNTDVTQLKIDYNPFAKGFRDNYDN
Put plainly: PBM E-score of 8-mer (E-score (dimensionless, -0.5 to 0.5)); Tbr is Tbrain of the sea star Patiria miniata (Pm) or the sea urchin Strongylocentrotus purpuratus (Sp); higher = stronger binding preference; most listed sequences are background and not binding sites. The note with it: the construct has about 5 more residues each side. The method, then:
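Universal protein-binding microarray (Agilent AMADID 016060, 60-bp probes with a 35-bp variable region) incubated with 200 nM GST-fused Strongylocentrotus purpuratus Tbr T-box DNA-binding domain (residues 362-554) in PBS pH 7.5. Scored for every ungapped 8-mer (given with its reverse complement) as E-score (range -0.5 to 0.5; >0.45 counts as bound) and Z-score of median probe intensity. Two replicate arrays (datasets 1 and 2).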
For the sequence CGCACGGC, the “PBM E-score of 8-mer” value was found to be 0.0428 ± 0.025. For the sequence AGTCGGCC, the “PBM E-score of 8-mer” value is -0.169 ± 0.029. Under GGGTTTAA stands 0.0146 ± 0.03.

In the case of GAGGAATC, the “PBM E-score of 8-mer” value was 0.0233 ± 0.0064. With AATAACCA, the “PBM E-score of 8-mer” value is -0.195 ± 0.027. In the case of AATACAAC it was -0.151 ± 0.069. For the sequence CTTACCAC, the “PBM E-score of 8-mer” value is 0.218 ± 0.022. Take ATGATTAC: the “PBM E-score of 8-mer” value stood at 0.000845 ± 0.044. For ACATTCAG, the “PBM E-score of 8-mer” value was -0.015 ± 0.018. In the case of AGCCAGTA it was -0.0497 ± 0.051. For the sequence AAATAAAA, the “PBM E-score of 8-mer” value was -0.0429 ± 0.1. In the case of TAGATATA, the “PBM E-score of 8-mer” value was -0.135 ± 0.043.

Turning to AACACACG, the “PBM E-score of 8-mer” value is 0.211 ± 0.033. Under TGCACCAA stands -0.0221 ± 0.038; under TATGTTCA, 0.049 ± 0.067; under AGGCTGCC, -0.0324 ± 0.034.

As for CATACACC, the “PBM E-score of 8-mer” value was 0.142 ± 0.057. Take AACGTTGA: the “PBM E-score of 8-mer” value was -0.00954 ± 0.074. For the sequence CAAGGGTA, the “PBM E-score of 8-mer” value is -0.0666 ± 0.024.

With CGATTGTA, the “PBM E-score of 8-mer” value is -0.0533 ± 0.023. ATTGCCTC: the “PBM E-score of 8-mer” value was -0.203 ± 0.03.

Take CTCGATTA: the “PBM E-score of 8-mer” value came out at 0.00121 ± 0.031.

In the case of CGGGCGTC, the “PBM E-score of 8-mer” value amounted to 0.117 ± 0.01. In the case of CGGAGAGC it was -0.145 ± 0.016; in that of AGCTAAAT, -0.0908 ± 0.017; in that of ATATGGCC, -0.175 ± 0.028. Turning to GAAAACTA, the “PBM E-score of 8-mer” value is -0.125 ± 0.057. For AGAGTTGC, the “PBM E-score of 8-mer” value is -0.0299 ± 0.027. For GGAAACAC, the “PBM E-score of 8-mer” value is 0.0658 ± 0.036. Regarding ACGTGGCT, the “PBM E-score of 8-mer” value is 0.0551 ± 0.0085.

In the case of GCAAGGCA, the “PBM E-score of 8-mer” value is -0.14 ± 0.028. In the case of AATGCTTG it was -0.0282 ± 0.054; in that of TTGCTAAA, 0.109 ± 0.08. In the case of GTCCGCCA, the “PBM E-score of 8-mer” value was 0.0165 ± 0.02.

For the sequence GCAGATGC, the “PBM E-score of 8-mer” value was -0.209 ± 0.12. For AAGCCAAT, the “PBM E-score of 8-mer” value was -0.214 ± 0.063.

Regarding CACAGGCG, the “PBM E-score of 8-mer” value amounted to 0.165 ± 0.068. Under TAACAAAA stands 0.0559 ± 0.015; under TCGTTGCA, -0.0951 ± 0.077; under GGCCACAC, 0.3886 ± 0.00083.

Consider ACATTGTA, for which the “PBM E-score of 8-mer” value stood at 0.0327 ± 0.025. For the sequence GCCGCAGA, the “PBM E-score of 8-mer” value is -0.227 ± 0.0099. Take CATTTCAG: the “PBM E-score of 8-mer” value is -0.00825 ± 0.03. With GCTCGCCA, the “PBM E-score of 8-mer” value was found to be 0.231 ± 0.017. Consider ACTGGTAA, for which the “PBM E-score of 8-mer” value is -0.182 ± 0.037. For the sequence GCTCCCAA, the “PBM E-score of 8-mer” value was -0.102 ± 0.066. In the case of AAACGTGA it was 0.156 ± 0.0067; in that of AGCAGTTG, 0.0722 ± 0.002; in that of ACCGCGGC, -0.0624 ± 0.06. Consider CAACCTGC, for which the “PBM E-score of 8-mer” value was found to be 0.149 ± 0.015. In the case of ACTACCGC it was 0.0104 ± 0.053; in that of AAGGCTCG, -0.153 ± 0.018; in that of CCCTTCGG, -0.254 ± 0.036.

In the case of AGACTCCC, the “PBM E-score of 8-mer” value was -0.0835 ± 0.033. Turning to TGCCTCAA, the “PBM E-score of 8-mer” value is -0.148 ± 0.046.

For CACTCCAC, the “PBM E-score of 8-mer” value came to 0.214 ± 0.027. As for AGACTCCT, the “PBM E-score of 8-mer” value was -0.214 ± 0.013.

For ATCTAGGC, the “PBM E-score of 8-mer” value is -0.3036 ± 0.00067. TCACGAAA: the “PBM E-score of 8-mer” value was determined as 0.14744 ± 0.00011. ACGCTTCG: the “PBM E-score of 8-mer” value was determined as 0.245 ± 0.018. In the case of CGCCGGCC it was -0.0236 ± 0.021; in that of ACTTTCTG, 0.00522 ± 0.034; in that of CGACGAAC, 0.0478 ± 0.062. With CGCTTATA, the “PBM E-score of 8-mer” value is -0.138 ± 0.012.

As to CGTCTTTC, the “PBM E-score of 8-mer” value came to 0.00271 ± 0.12. AAGCAAAG: the “PBM E-score of 8-mer” value was -0.0254 ± 0.0077.

As to AGATGCCC, the “PBM E-score of 8-mer” value is -0.161 ± 0.029. On to CTGTGTCA, for which the “PBM E-score of 8-mer” value was determined as 0.247 ± 0.015. Turning to GCAGTAGA, the “PBM E-score of 8-mer” value was -0.136 ± 0.054. In the case of CCTATTAC, the “PBM E-score of 8-mer” value is 0.0166 ± 0.023.

For CGCGATCA, the “PBM E-score of 8-mer” value amounted to 0.268 ± 0.023. On to CTCTCCAC, for which the “PBM E-score of 8-mer” value was determined as 0.0528 ± 0.073. For the sequence ACGTTTCT, the “PBM E-score of 8-mer” value is -0.0766 ± 0.042. Turning to GCGAATGA, the “PBM E-score of 8-mer” value came to 0.231 ± 0.038.

On to AATCCAAC, for which the “PBM E-score of 8-mer” value worked out at 0.014 ± 0.057. Consider ACGACCCT, for which the “PBM E-score of 8-mer” value is -0.126 ± 0.062.

Consider CACCTCTG, for which the “PBM E-score of 8-mer” value is 0.3929 ± 0.0014.

Consider AGGTGGTA, for which the “PBM E-score of 8-mer” value turned out to be 0.405 ± 0.011. In the case of CGTAGTTC, the “PBM E-score of 8-mer” value is -0.0821 ± 0.066.

Regarding GGTTAAAC, the “PBM E-score of 8-mer” value is -0.165 ± 0.0043.

As for ATTTGGGC, the “PBM E-score of 8-mer” value is -0.181 ± 0.017. Regarding GCCGAGGC, the “PBM E-score of 8-mer” value is -0.0254 ± 0.021. Consider CGAGCACG, for which the “PBM E-score of 8-mer” value was -0.0883 ± 0.0044.

As to AGCGAGAT, the “PBM E-score of 8-mer” value is 0.115 ± 0.032.

Take ATCGCTTC: the “PBM E-score of 8-mer” value was determined as 0.0661 ± 0.045. For CTTAAGGC, the “PBM E-score of 8-mer” value was -0.137 ± 0.048.
